The text below walks through data of PubChem BioAssay AID488969 (Vanderbilt High Throughput Screening Facility, 2010).

Whole data set: some 110,000 compounds, median “z-score” near -0.1, cut for the highest 2% near 2. This is one part of the list.

The test deals with Metabotropic glutamate receptor 8 (Rattus norvegicus) (UniProt P70579). Put plainly: rat mGluR8 modulators via GIRK flux, primary screen, cell-based, thallium flux, HTS (AID 488969). Particulars: HEK293 rat mGluR8, GIRK (G protein-gated inwardly rectifying potassium channel) thallium flux, FluoZin2; at 10 µM; stronger effect = higher value; submaximal glutamate (EC20) added with thallium.
UniProt P70579, sequence (P70579 whole entry, looked up): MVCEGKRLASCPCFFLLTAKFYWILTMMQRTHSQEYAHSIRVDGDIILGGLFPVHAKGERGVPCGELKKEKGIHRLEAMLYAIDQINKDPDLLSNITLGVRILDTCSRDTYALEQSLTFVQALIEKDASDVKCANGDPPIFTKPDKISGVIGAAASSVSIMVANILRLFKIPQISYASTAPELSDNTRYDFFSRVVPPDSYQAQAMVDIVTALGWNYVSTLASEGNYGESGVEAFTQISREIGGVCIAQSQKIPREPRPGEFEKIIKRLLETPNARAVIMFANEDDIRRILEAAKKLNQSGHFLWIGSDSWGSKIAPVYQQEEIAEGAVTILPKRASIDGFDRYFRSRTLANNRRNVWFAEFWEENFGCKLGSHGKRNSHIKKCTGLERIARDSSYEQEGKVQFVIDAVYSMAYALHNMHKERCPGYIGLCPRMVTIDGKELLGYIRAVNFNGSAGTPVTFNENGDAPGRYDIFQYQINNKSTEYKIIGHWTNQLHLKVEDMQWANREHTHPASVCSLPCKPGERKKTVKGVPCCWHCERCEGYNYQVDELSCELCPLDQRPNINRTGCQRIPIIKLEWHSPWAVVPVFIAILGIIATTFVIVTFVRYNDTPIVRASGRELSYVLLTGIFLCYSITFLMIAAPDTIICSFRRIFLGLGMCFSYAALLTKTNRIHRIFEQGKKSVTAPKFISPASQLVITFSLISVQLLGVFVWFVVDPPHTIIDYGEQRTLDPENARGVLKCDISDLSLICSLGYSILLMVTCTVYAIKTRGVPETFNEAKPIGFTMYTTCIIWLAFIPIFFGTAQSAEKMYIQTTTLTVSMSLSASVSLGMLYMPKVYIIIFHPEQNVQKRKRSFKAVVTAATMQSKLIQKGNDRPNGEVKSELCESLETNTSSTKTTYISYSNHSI
Regarding `CCC1CCCCN1CCCNC(=O)c1ccc2c(=O)n(Cc3ccc(OC)cc3)c(=O)[nH]c2c1` (stereo unspecified), the z-score is 0.751.

With `COC(=O)c1ccccc1NC(=O)c1cnn2c(C(F)F)cc(C3CC3)nc12`, the z-score worked out at 0.129.

For `Cc1cs/c(=N\N=C\c2ccccc2)n1Cc1ccco1`, the z-score was -0.431.

As for `C/C(=N\N1CCN(c2ccccc2)CC1)c1ccco1`, the z-score was -0.205.

Turning to `O=C(Cc1ccccc1)NCc1ccc2c(c1)OCO2`, the z-score is -0.0592.

`O=C(CSc1nnc(-c2cccnc2)n1Cc1ccccc1)NCc1ccccc1`: the z-score was 0.0412.

Turning to `CCOC(=O)N1CCN(C(=O)CN(C2CCCCC2)S(=O)(=O)c2ccc(Cl)cc2)CC1`, the z-score is -0.273.

Turning to `O=C(CN1N=C(c2ccccc2)CCC1=O)NCCCN1CCc2ccccc2C1`, the z-score is -0.131.

Regarding `O=C(c1ccc(F)cc1)N1CCN=C1c1ccccc1`, the z-score was -0.225.

In turn, `CCC(SC1=NCCS1)C(=O)Nc1nnc(-c2ccccc2OC)s1` (stereo unspecified) displayed a z-score of 0.418.

Take `CC(C)N1CC(C(=O)Nc2ccccc2)CC1=O` (stereo unspecified): the z-score is -0.146.

Consider `O=C(NNC(=O)c1ccccc1-c1ccccc1C(=O)O)c1cccc([N+](=O)[O-])c1`, for which the z-score is -0.138.

Compound `CSc1nc(C)cc(OCC(=O)N2CCOCC2)n1` had a z-score of 0.387.

On to `Cc1ccc(-n2c(-c3ccccc3)cc(=O)nc2C)cc1`, for which the z-score was -0.963.

In the case of `CCC(C)(C)NC(=O)CN(C(=O)c1snc(C(N)=O)c1N)c1ccc2c(c1)OCCO2`, the z-score was 0.553.

For the compound `O=C(Nc1ccccc1)NC1CCS(=O)(=O)C1` (stereo unspecified), the z-score is -0.135.

In turn, `O=C(Cc1ccccc1)Nc1c(C(=O)N2CCOCC2)cnn1-c1ccccc1` came in with a z-score of 0.0498.

Turning to `Cc1cccc(NC(=O)Cn2cnc3ccccc3c2=O)c1C`, the z-score was -0.132.

In turn, `CS(=O)(=O)Nc1ccccc1C(=O)N1CCCC1` registered a z-score of 0.598.

As for `COC(=O)Cn1c(=O)c2c(nc(Br)n2CC(=O)OC)n(C)c1=O`, the z-score is -0.0502.

Compound `CSc1ncccc1C(=O)OCc1ccc(C#N)cc1` gave a z-score of 0.318.

Consider `CCOC(=O)c1[nH]c2cc3c(cc2c1NC(=O)CN1CC(C)CC(C)C1)OCO3` (stereo unspecified), for which the z-score was 0.332.

For `Cc1ccnc(N2CCCC(C(=O)NCc3cccs3)C2)n1` (stereo unspecified), the z-score was determined as 0.259.

`O=c1c2sc3nc(N4CCOCC4)c4c(c3c2ncn1CCc1ccccc1)CCCC4` returned a z-score of 0.333.

With `CCOC(=O)CC(=O)CSc1nc(-c2ccc3c(c2)OCO3)cc(C(F)(F)F)c1C#N`, the z-score is -0.0481.

`CC(=O)Nc1cccc(NC(=O)c2cc(C)on2)c1` yielded a z-score of 0.686.

For the compound `Cc1ccc(S(=O)(=O)NC(=O)N2CCCC(C)(C)C2)cc1`, the z-score was -0.204.

As for `CC(=O)Nc1ccc(/C=C(\C#N)C(=O)NCc2ccccc2)cc1`, the z-score is -0.138.

Take `CC(C)OC(=O)/C(=C/c1ccc2c(c1)c1ccccc1n2C)NC(=O)c1ccccc1`: the z-score turned out to be 0.233.

With `CCNS(=O)(=O)c1ccc2c(c1)n(C)c(=O)n2C`, the z-score is -0.0452.

In turn, `COC(=O)c1cc(CSc2nnc(NC3CCCCC3)s2)oc1C` gave a z-score of 0.307.

Regarding `COC(=O)CNC(=O)/C=C/c1ccc(OC)cc1`, the z-score was -0.132.

In turn, `CNc1nc(OCC(F)(F)F)nc(N2CCN(C34CC5CC(CC(C5)C3)C4)CC2)n1` registered a z-score of 0.418.

Consider `O=C(COC(=O)/C=C/c1cccc(F)c1)Nc1ccccc1-c1ccccc1`, for which the z-score is -0.0868.

With `CCOC(=O)c1nnn(-c2ccc(OC)cc2)c1N`, the z-score was -0.142.

For the compound `CCCCNC(=O)Nc1cc(C(=O)OC)ccc1C`, the z-score was determined as 0.95.

As for `Cc1nn(-c2ccccc2)c(C)c1/C=N/NC(=O)c1cc(-c2ccc(Cl)s2)[nH]n1`, the z-score was -0.78.

As for `COc1cc(/C=C2/N=C(C3CCCCC3)OC2=O)cc(OC)c1OC`, the z-score is -0.0279.

Regarding `O=C(NCCO)C1(c2ccc(Cl)cc2)CCCC1`, the z-score turned out to be 0.494.

In turn, `C=CCSc1nnc(NC(=O)c2ccc(Cl)nc2)s1` had a z-score of 0.00598.

For `CNc1c([N+](=O)[O-])cnn1-c1ccc(C)cc1`, the z-score was -0.0888.

Compound `COc1ccc(/C=C(/NC(=O)c2ccc(OC)c(OC)c2)C(=O)NCCc2c[nH]c3ccccc23)cc1` returned a z-score of 0.00549.

On to `Cc1ccc(C(=O)NN2CCOCC2)cc1`, for which the z-score was 0.0499.

As for `CC(C)CC(OC(=O)c1cccs1)C(=O)NCc1cccs1` (stereo unspecified), the z-score worked out at 0.126.

For the compound `COCc1cc(C)nc(N2CCNCC2)c1C#N`, the z-score is -0.204.

Consider `O=C(CS(=O)(=O)Cc1ccccc1)N1CCc2ccccc2C1`, for which the z-score was 0.261.

As for `O=C(Nc1ncnc2sc3c(c12)CCCCC3)c1ccc(F)cc1`, the z-score was -0.0228.

On to `Cc1ccc(NC(=O)NC(=O)N(C(C)C)S(C)(=O)=O)nc1`, for which the z-score is -0.0454.

On to `Cc1ccccc1C(=O)Nc1ccccc1-c1nnn(CC(=O)Nc2ccc3c(c2)OCCO3)n1`, for which the z-score is -0.78.

`CCCS(=O)(=O)c1nc(S(=O)(=O)c2ccc(C)cc2)c(NCCCN2CCOCC2)s1` showed a z-score of 0.117.

`O=C(c1cc2ccccc2oc1=O)N1CCSC1c1ccco1` (stereo unspecified) showed a z-score of 0.115.

For the compound `O=C(Nc1nccs1)C(NS(=O)(=O)c1ccc(Br)s1)c1ccccc1` (stereo unspecified), the z-score was -0.117.

For `COC(=O)c1ccccc1NC(=O)c1cc2nc(C3CC3)cc(C(F)(F)F)n2n1`, the z-score was -0.103.

As to `CCOC(=O)Cn1cnc(-c2ccc([N+](=O)[O-])cc2)c1`, the z-score is -0.164.

With `CCOC(=O)CC(=O)CSc1nc(C)cc(-c2cccnc2)c1C#N`, the z-score is -0.182.

Take `COc1ccc(NC(=O)COC(=O)c2c(-c3ccccc3)noc2C)cc1`: the z-score was -0.0243.

With `COc1cc(OC)c(NS(=O)(=O)c2ccc(Cl)c(C(=O)OC(C)C(=O)N3CCCC3)c2)cc1Cl` (stereo unspecified), the z-score is -0.51.

For the compound `COCC(C)n1c(SCC(=O)NC(=O)Nc2ccc3c(c2)OCCO3)nc2ccccc2c1=O` (stereo unspecified), the z-score was -1.25.

As for `COC(=O)c1c(NC(=O)c2cccnc2Cl)sc(C(=O)N(C)C)c1C`, the z-score is 0.00718.

Consider `Cc1ccccc1NC(=O)N1C2CCC1CC(O)(c1cccnc1)C2` (stereo unspecified), for which the z-score is -0.936.

As to `O=S(=O)(Nc1ccc(Cc2ccncc2)cc1)c1ccc(Cl)c(Cl)c1`, the z-score was 0.0113.

For `O=C(Nc1ccc(Cl)c([N+](=O)[O-])c1)c1ccncc1`, the z-score is -0.0927.

On to `CC(=O)Nc1cccc(-c2nnc(SCc3ccccc3C#N)n2C)c1`, for which the z-score is -0.207.

`CCN(CC)C(=O)Cn1cnc2ccccc2c1=O` gave a z-score of 0.54.

Turning to `COC(=O)c1cc([N+](=O)[O-])c(-n2ccnc2)c([N+](=O)[O-])c1`, the z-score is -0.181.

For the compound `CCOc1cc([C@H]2[C@@H]3CCCC[C@]3(O)CCN2CC(=O)NCc2ccco2)ccc1O`, the z-score is -0.351.

Take `CC1=Nc2ccccc2/C1=C/c1sc(=O)n(CC(=O)N2CCCC2)c1O`: the z-score was -0.124.

Consider `COc1cc2c3nnc(-c4ccc(F)cc4)c-3cn(Cc3ccccc3)c2cc1OC`, for which the z-score is -1.5.

On to `COc1ccc(NC(=O)c2sc(=S)[nH]c2N)cc1`, for which the z-score is -0.083.

Turning to `CCOc1cc2c(cc1C(C)(C)C)NC(=O)CS2`, the z-score is -0.538.

`Cc1cc(/C=N\NC(=O)COc2cccc3cccnc23)c(C)n1-c1ccccc1`: the z-score was -1.

In turn, `CCCNCC1C(Oc2ccc(Cl)cc2)C(=O)N1c1ccccc1C` (stereo unspecified) gave a z-score of 1.55.

For the compound `Cc1cccc(NC(=O)CC2CCC2)c1`, the z-score was found to be 0.808.

For `CCCN1CNC(=S)N(c2cccc(C)c2C)C1`, the z-score is -0.309.

On to `CCSc1nc2ccccc2n1C(=O)c1ccc(S(=O)(=O)N2CCCCCC2)cc1`, for which the z-score is -0.692.

Regarding `Cc1cccc(NC(=O)CSc2nnc(CNC(=O)c3ccc(S(=O)(=O)N(C)C)cc3)n2-c2ccccc2)c1`, the z-score was -0.436.

Regarding `Cc1ccccc1NC(=O)c1ccc(-c2ccc(Cl)cc2Cl)o1`, the z-score was -0.551.

`O=C1CN(C(=O)COC(=O)CCSc2ccccc2Cl)c2ccccc2N1`: the z-score is -0.22.

In turn, `COc1ccc(C(C)NC(=O)C2CCCO2)cc1OC` (stereo unspecified) had a z-score of 0.0559.

Consider `COc1ccc(C(=O)NCC(=O)NC2=NCCS2)cc1`, for which the z-score was -0.432.

With `O=C(O)CCc1ccc(-c2ccc(Br)cc2)n1CC(=O)O`, the z-score is 1.29.

Consider `COc1cccc(-c2ccc(SCC(=O)N3CCc4ccccc43)nn2)c1`, for which the z-score was -0.0256.

In turn, `CCS(=O)(=O)N1CCC(C(=O)NCCc2ccc(C)cc2)CC1` returned a z-score of 0.399.

`Cc1c(Cl)ccc2c1NC(=O)C21NC(CCC(N)=O)[C@H]2C(=O)N(c3ccc(Cl)cc3)C(=O)[C@H]21` (stereo partly specified) returned a z-score of 0.4.

With `O=C(Nc1nnc(SCC(=O)N2CCOCC2)s1)c1ccccc1`, the z-score was -0.215.

Consider `CCOc1ccccc1-c1nc2c([nH]1)c(=O)n(C)c(=O)n2C`, for which the z-score is -0.0815.

With `NC(N)=N/N=C/c1ccccc1`, the z-score amounted to 0.654.

`CCN1C(=O)C2(C(C#N)=C(N)Oc3cc(C)oc(=O)c32)c2ccccc21` (stereo unspecified): the z-score was -0.425.

Regarding `COc1ccccc1-c1nnc(-c2ccc(N3CCOCC3)cc2)o1`, the z-score was -0.18.

In the case of `COC(CN(C(=O)CCl)C(C(=O)NC1CCCCC1)c1ccccc1C)OC` (stereo unspecified), the z-score is -0.0887.

Regarding `COC(=O)c1cc(C(=O)OC)cc(N2C(=O)CN=C2Nc2nc(C)cc(C)n2)c1`, the z-score is -0.761.

On to `CCc1c(-c2ccccc2)nc(N)c(C#N)c1-c1cccs1`, for which the z-score was found to be 0.329.

As for `c1ccc(-c2ccccc2OCCCCN2CCCCC2)cc1`, the z-score stood at 0.338.

On to `CCCNC(=O)COC(=O)CCC(=O)c1ccc(F)cc1`, for which the z-score was -0.419.

Take `O=C(C1CC(c2ccccc2O)=NO1)N1CCCC1` (stereo unspecified): the z-score was -0.33.

Consider `O=C(CNS(=O)(=O)c1ccccc1F)Nc1ccc(N2CCOCC2)cc1`, for which the z-score is -0.406.

For the compound `O=C(C1=C(O)C(=O)N(c2ncccn2)C1c1cccc(Cl)c1)c1ccco1` (stereo unspecified), the z-score is -2.95.

In the case of `CC(C)[C@H](NC(=O)c1ccccc1)C(=O)OCC(=O)/C=C1/N(C)c2ccccc2C1(C)C`, the z-score is -0.699.

The compound `O=C(O)c1ccc(/C=N/NC(=O)c2ccc(Br)cc2)cc1` registered a z-score of 0.0326.

`C=CCN(CC=C)C(=O)C(=O)c1cc(C)n(-c2ccc([N+](=O)[O-])cc2)c1C` showed a z-score of 0.767.

`CCC(C)NS(=O)(=O)c1ccc(OCC(=O)NCC2CCCO2)cc1` (stereo unspecified): the z-score is -0.341.

Turning to `Cc1ccc(C(=O)/C=C\C(=O)c2ccc(C)cc2)cc1`, the z-score is -0.118.

Consider `COc1ccccc1NC(=O)CSc1nnc(Cc2cccn2C)n1-c1ccc(F)cc1`, for which the z-score is -0.461.

As to `O=C(Nc1ccc(Cl)cc1)c1ccsn1`, the z-score was -0.264.

On to `CC(/C=N/N1CCN(c2ccccn2)CC1)=C\c1ccccc1`, for which the z-score was -0.329.

`Cc1c(NC(=O)C2CCCNC2=O)c(=O)n(-c2ccccc2)n1C` (stereo unspecified) had a z-score of 0.0924.

`CCCCOC(=O)CSc1nc(N)c(C#N)c(-c2ccc(OCC)cc2)c1C#N` displayed a z-score of 0.05.

Take `Cc1ccc(SCc2nc3ccccc3n2CC(=O)Nc2ccccc2)cc1`: the z-score is -0.21.

In the case of `CC(C)C(C)(C#N)NC(=O)CSc1nc(C2CCCCC2)n(-c2ccccc2)n1` (stereo unspecified), the z-score was -0.0651.

Take `CCOc1ccc(N2CC(C(=O)NCc3cccc(C)c3)CC2=O)cc1` (stereo unspecified): the z-score was -0.0878.

`O=C(CCSc1nc(-c2ccco2)cc(C(F)(F)F)n1)Nc1ccc2c(c1)OCO2`: the z-score was -1.34.
